According to patent US20240252467A1, “TREATMENT OF MENTAL ILLNESS VIA ADMINISTRATION OF BUNTANETAP AND ANALOGUES THEREOF” (ANNOVIS BIO, INC., priority 2023, published 2024):
Read-outs that look alike come from different tables or passages of the source.

Legend:
[1] = tested on: early AD patients, early PD patients; test: Phase 2a double-blind, placebo-controlled study in early AD and early PD patients; format: in vivo, human
[2] = Side effects / toxic dose in humans; format: in vivo, human; conditions: single oral doses above about 120 mg/day and multiple oral doses of up to 240 mg/day
[3] = tested on: APP; test: APP levels in SH-SY-5Y human neuroblastoma cells (Western blot); format: cell-based; conditions: SH-SY-5Y cells, 0, 0.1, 1, 5 and 10 μM
Description: On the left is a Western blot showing buntanetap inhibition of APP in relation to Actin standard at concentrations of 0, 0.1, 1, 5 and 10 μM and a graph showing the same data plotted for statistical analysis purposes.

[4] = tested on: APP and its fragments; test: APP and its fragments in hippocampus of APP/PS1 transgenic AD mice; format: in vivo
Description: FIG. 2, APP in vivo. […] GAPDH and Synaptophysin were loading controls. FIG. 2 also includes a collection of graphs showing relative density of APP plotted against control and time after buntanetap treatment; relative density of CTFβ plotted against control and time after buntanetap treatment; relative density of CTFα plotted against control and time after buntanetap treatment; Aβ42 levels in brain tissue plotted against control and time after buntanetap treatment; and Aβ40 levels in brain tissue plotted against control and time after buntanetap treatment. Finally, FIG. 2 also includes a Western blot showing levels of APP, NSB, CTFβ, and CTFα after buntanetap treatment over time (minutes).

[5] = tested on: mice; test: Elevated Plus-Maze Test; format: in vivo; conditions: 25 mg/kg p.o. once daily Day 1-10, 60 minutes before test
Description: A number of Elevated Plus-Maze Tests described by Handley and Mithani (Naunyn. Schmied. Arch. Pharmacol., 327, 1-5, 1984) were conducted in mice. The test is based on the premise that mice avoid open spaces (the open arms of an elevated plus-maze). Anxiolytics increase exploratory activity in the open arms, as indicated by increased time spent on the open arms and/or by increased % open-arm entries.
The maze consisted of 4 arms of equal length and width (14×5 cm) arranged in the form of a plus sign (+). Two opposite arms were enclosed by 12 cm high walls (closed arms). The 2 other arms had no walls (open arms). The maze is raised approximately 60 cm above the floor. A mouse was placed in the center of the plus-maze and left to explore for 5 minutes.
Buntanetap was a therapeutic agent. […] Clobazam, a therapeutic agent with confirmed anxiolytic activity, was used to validate the test.

[6] = tested on: APP/PS1 mice; test: Fear Conditioning Test; format: in vivo; conditions: 1 and 10 mg/Kg
Description: Sensory perception of electric foot shock was examined in different groups of mice through the threshold assessment test. APP/PS1 mice (i.e., the heterozygous double transgenic mice expressing both human APP (K670N:M671L) and human PS1 (M146L)) and WT mice (i.e., the Wild type, a normal healthy mouse with no deficiencies) were used.
The animals were placed in the conditioning chamber and the electric current (0.1 mA for 1 sec) was increased at 30 sec intervals from 0.1 mA to 0.7 mA.
Then, fear conditioning (FC) training was performed. Mice was placed in a conditioning chamber for 2 min before the onset of a tone (Conditioned Stimulus (CS), 30 sec, 85 dB sound at 2800 Hz). In the last 2 sec of the CS, mice was given a 2 sec, 0.7 mA mild foot shock (Unconditioned Stimulus, (US)) through the bars of the floor. After the US, the mice was left in the chamber for another 30 sec. Freezing behavior, defined as the absence of movements except for that needed for breathing, was scored using Freezeview software (Med Associates, St. Albans, VT). Contextual fear learning, a type of memory for which hippocampal function is indispensable, was evaluated 24 hrs after training by measuring freezing responses for 5 min in the same chamber where the mice were trained. Cued fear learning, a type of memory that depends on amygdala function, was evaluated 24 hrs after contextual testing. […]

[7] = tested on: sAPPα, sAPPβ, Aβ42, Tau (total and phosphorylated), αSYN and inflammatory markers in CSF; conditions: MCI subjects, 10 days of administration
[8] = tested on: sAPPα, sAPPβ, Aβ42, Tau (total and phosphorylated), αSYN and inflammatory markers in CSF; conditions: cited from earlier work
[9] = tested on: early AD patients, early PD patients; conditions: cited from earlier work
[10] = tested on: APP; conditions: neuroblastoma cells; cited from earlier work
[11] = tested on: APP and its fragments; conditions: APP/PS1 transgenic mice; cited from earlier work
[12] = tested on: tau; conditions: unpublished observation, Peter Davies Laboratory; cited from earlier work
[13] = tested on: tau; conditions: Human tau mice; unpublished observation, Peter Davies Laboratory; cited from earlier work
[14] = tested on: αSYN; conditions: neuroblastoma cells; cited from earlier work
[15] = tested on: αSYN; conditions: transgenic Parkinson's animals, brain and gut; cited from earlier work
[16] = tested on: retrograde axonal transport of BDNF; conditions: cited from earlier work; for flow and speed of axonal transport (FIG. 6): Down Syndrome nerve cell, treated for 48 hours
[17] = tested on: fl-APP, tau phosphorylation, Rab5, pTrkB, pAkt, pERK, pCREB; conditions: cited from earlier work
[18] = tested on: TBI rats; conditions: cited from earlier work
[19] = tested on: glaucoma rats; conditions: rat acute glaucoma model, eye, cited from earlier work
[20] = tested on: APP/PS1 tg mice; conditions: hippocampus of APP/PS1 tg mice; cited from earlier work
[21] = clinical; conditions: human, brain

SMILES: CN1CC[C@]2(C)c3cc(OC(=O)Nc4ccccc4)ccc3N(C)C12 (stereo partly drawn) [buntanetap, (3aR)-1,3a,8-trimethyl-1,2,3,3a,8,8a-hexahydropyrrolo[2,3-b]indol-5-yl phenylcarbamate]
- crossing of the blood brain barrier ([1]; AD and PD patients, once daily dose): crossed the blood brain barrier
- cognition as measured by ADAS-Cog11 and WAIS coding speed ([1]; AD patients, 80 mg QD, statistical significance versus baseline but not placebo): improved cognition
- motor function as measured by MDS-UPDRS (Part II, III, IV and total) ([1]; PD patients, 5, 10, 20, 40, 80 mg QD): improved at all doses motor function
- side effects (e.g., nausea and vomiting) [2]: increased incidence of side effects
- APP in relation to Actin standard (FIG. 1) [3]: lowers APP in vitro in a dose-dependent manner
- APP and its fragments in hippocampus (FIG. 2) ([4]; APP/PS1 transgenic AD mice): reduced APP and its fragments in hippocampus
- duration of reduction of APP and all related peptides in hippocampus ([4]; after the last dose): at least 9 hours
- open arm exploration (FIG. 8A to 8E) [5]: entered the high open arm of the maze more often, stayed longer and traveled longer distances
- fear (freezing) [6]: had less fear
- aggregating proteins (APP/Aβ, tau/phospho-tau, αSYN) in CSF (FIG. 3) [7]: normalized these aggregating proteins in CSF
- levels of APP, Tau, and αSYN in CSF ([8]; MCI subjects, 4×60 mg/day): normalized
- CSF levels of sAPPα, sAPPβ, t-tau, p-tau, and specific inflammatory markers ([8]; MCI subjects): significantly lowered
- inflammation ([8]; human CSF of MCI subjects): lowered inflammation
- duration of effect in lowering neurotoxic proteins and inflammation ([8]; sampling period after the last dose): ≥ 12 h
- Biomarker data ([9]; AD and PD cohorts): a trend in lowering levels of neurotoxic proteins and inflammatory factors and improving axonal integrity ad synaptic function
- ADAS-Cog11 and WAIS coding ([9]; AD patients, 80 mg QD): statistically significant improvements
- MDS-UPDRS and WAIS coding ([9]; PD patients, 5-80 mg QD): statistically significant improvements
- Safety and tolerability ([9]; doses up to 80 mg QD, AD and PD patients): well tolerated
- levels of APP in vitro [10]: lowers levels of APP
- levels of APP and all its fragments [11]: lowers levels of APP and all its fragments
- tau in vitro [12]: lowers tau
- tau in vivo [13]: lowers tau
- αSYN in vitro [14]: lowers αSYN
- αSYN in vivo [15]: lowers αSYN
- flow and speed of axonal transport (FIG. 6) [16]: full recovery of axonal transport
- flow and speed of axonal transport (FIG. 6) ([16]; listed as butanetap): improves the flow and speed of axonal transport
- retrograde axonal transport of BDNF in cortical neurons ([16]; Ts65Dn cortical neurons, 5 μM for 48 hours): rescued the deficit
- levels of pTrkB, pAkt, pERK, and pCREB ([17]; Ts65Dn brains): restored the levels
- fl-APP ([17]; Ts65Dn mice, 50 mg/kg/d i.p.): significantly reduced fl-APP
- tau (two bands quantified together), vehicle versus buntanetap ([17]; Ts65Dn mice, 50 mg/kg/d i.p.): no statistically significant difference
- phosphorylation of tau on Thr231 and PHF1 epitopes ([17]; Ts65Dn mice, immunoblotting): reduced phosphorylation of tau
- activity of Rab5 ([17]; in vivo, Ts65Dn mice): restored normal activity of Rab5
- inflammation ([18]; rat brain after TBI): lowered inflammation
- dopaminergic neuropathology and working memory ([18]; rat model of traumatic brain injury): improves dopaminergic neuropathology and working memory
- synaptic transmission ([18]; rat striatum after TBI): Normalized impaired synaptic transmission
- protection of nerve cells ([18]; rat substantia nigra after TBI): protected nerve cells
- protection of nerve cells [19]: protected nerve cells
- protection of nerve cells ([19]; listed as Butanetap): protects nerve cells from dying
- synaptic transmission [20]: Normalized impaired synaptic transmission
- Kp [21]: ~8
